Reference: PubChem BioAssay AID1508642 (National Center for Advancing Translational Sciences (NCATS), 2021)
Among all 43,000 compounds or so, about 200 (0.47%) were called active. Roughly 12% stayed inconclusive and do not appear here. Calls come from the whole dose curve; as a rule, active = well fitted cell-killing curve with a large enough effect; inconclusive = small, poorly fitted or top-dose-only effect, or effect the other way; inactive = flat fitted curve, though single readings scatter. The list shows a part of the results.

Test: Cell viability qHTS assay in S16 Pmp22-F2sN cells; note: nearly all actives have a fitted effect of over 65% in size
Conditions: S16 Pmp22-F2sN Schwann cells (luciferase reporters placed in the Pmp22 gene) viability, CellTiter-Glo, 24 h; series mostly up to 57.5 µM; activity change, negative = cytotoxicity: at the top concentration
Procedure, shortened: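 Rat S16 Schwann reporter line, 24 h treatment with library compounds delivered at 23 nL per well. Cell viability by CellTiter-Glo luminescence.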
% is set by controls: 0 for no effect and ±100 for the full control effect; potency is the fitted concentration of half-maximal effect.

Structure (SMILES)	activity change, negative = cytotoxicity	Potency
CCOc1ccccc1NC(=O)CSc1nc2ccccc2nc1N1CCOCC1	inactive: 4.66%	
COC(=O)c1cc(NS(=O)(=O)c2ccc3c(c2)OCCO3)ccc1Cl	inactive: 0.432%	
COc1ccc(NC(=O)c2oc3ccc(S(=O)(=O)N4CCOCC4)cc3c2C)c(OC)c1	inactive: 29.2%	
COc1ccc(N2CCN(C(=O)c3cc4c(=O)n(Cc5cccnc5)ccc4nc3C)CC2)cc1	inactive: 1.45%	
COc1ccc(CCNC(=O)c2cnn(-c3ccc(F)cc3)c2C2CCN(C(=O)OC(C)(C)C)CC2)cc1OC	inactive: 4.97%	
O=C(CN1C(=O)C2(SCC(=O)N2c2ccc(F)c(F)c2)c2ccccc21)NCCc1ccccc1 (stereo unspecified)	inactive: -4.12%	
CCOc1cc(C(c2c(C)[nH]n(-c3ccccc3)c2=O)c2c(C)[nH]n(-c3ccccc3)c2=O)ccc1O	inactive: -3.28%	
COc1ccc(-c2noc(N3CCC(C(=O)Nc4cccc(C)c4C)CC3)n2)cc1	inactive: -3.61%	
CCOc1cc(CNC(=O)c2cc(-c3ccccc3)n[nH]2)cc(OCC)c1OCC	inactive: -14%	
O=C(NCCc1ccc(F)cc1)C(=O)NCC(c1ccco1)S(=O)(=O)c1ccccc1 (stereo unspecified)	inactive: 8.42%	
CCOc1ccc(/C=C/c2nc(C#N)c(N3CCN(CC)CC3)o2)cc1	inactive: -2.74%	
Cc1[nH]c2ccc(C(=O)N3CCN(c4ccccc4F)CC3)cc2c1C	inactive: -9.93%	
CCN(CC)S(=O)(=O)c1ccc(NC(=O)Cn2ncc3c([nH]c4ccccc43)c2=O)cc1	inactive: -9.96%	
CC(Oc1ccccc1)C(=O)Nc1ccc(C(=O)OCc2cc(=O)n3nc(C(C)C)sc3n2)cc1 (stereo unspecified)	inactive: -0.128%	
Cc1nc(SCC(=O)N2CCN(c3ccccc3)CC2)[nH]c(=O)c1C	inactive: -1.57%	
Fc1ccccc1Nc1c2c(nc3ccccc13)CCC2	inactive: -4.03%	
COc1cccc2cc(C(=O)N3CCN(c4cc(C)ccc4C)CC3)c(=O)oc12	inactive: -0.544%	
CCc1ccccc1NC(=O)CN(C)S(=O)(=O)c1cccc2nsnc12	inactive: -5.26%	
COc1ccc(OC)c(NC(=O)c2c(NCc3cccs3)sc3c2CCCCC3)c1	inactive: -8.89%	
CCN(CC)c1ccc(NC(=O)c2c(C)nn(-c3ccc(F)cc3)c2-n2cccc2)c(C)c1	inactive: -0.318%	
COc1ccc(-c2ccc(NS(=O)(=O)c3ccc(NC(C)=O)cc3)cc2)nn1	inactive: -0.32%	
Cc1ccc(CNC(=O)CCS(=O)(=O)c2cc3c4c(c2)CCN4C(=O)CC3)cc1	inactive: 24%	
CCc1ccc(NC(=O)CSc2nc3c([nH]c4ccccc43)c(=O)n2-c2ccc(C)cc2)cc1	inactive: 3.55%	
COc1cccc(CN(C(=O)COc2ccc(Cl)c(C)c2)C2CCS(=O)(=O)C2)c1 (stereo unspecified)	inactive: 0.698%	

Structure (SMILES)	activity change, negative = cytotoxicity	Potency
Cc1ccc(C2CC(=O)n3nc(-c4ccc(Cl)cc4)nc3S2)cc1 (stereo unspecified)	inactive: 2.4%	
Cc1ccc(Sc2ccc(N3CCC(C(=O)Nc4cc(C)cc(C)c4)CC3)nn2)cc1	inactive: 1.75%	
Cc1c(Cl)cccc1-n1ncc(C(=O)NCCN2CCN(C)CC2)c1C1CCN(C(=O)OC(C)(C)C)CC1	inactive: 4.76%	
O=C(Cn1c(=O)n(-c2ccccc2)c(=O)c2c3c(sc21)CCC3)c1ccc(F)cc1	inactive: 10.6%	
O=C(NCc1ccccc1)c1ccc2c(c1)N(Cc1ccccc1F)C(=O)c1ccccc1S2=O (stereo unspecified)	inactive: -21.3%	
COc1cccc(CN2C(=O)c3ccccc3Sc3ccc(C(=O)NCc4ccccc4)cc32)c1	inactive: 18.4%	
COc1ccccc1C(=O)Nc1c(C(=O)Nc2cc(Cl)ccc2C)sc2nc(C)cc(C)c12	inactive: -1.43%	
COc1cccc(N2CCN(C(=O)c3cnc4c(-c5ccccc5)c(C)nn4c3C)CC2)c1	inactive: -2.34%	
Cc1ccccc1NC(=O)NCCc1c[nH]c2ccccc12	inactive: 3.25%	
O=C(Nc1ccccc1)c1cnc(N2CCCCC2)c2ccccc12	inactive: -3.08%	
CCOC(=O)c1scc(-c2ccccc2)c1S(=O)(=O)N1CCN(c2ccc(Cl)cc2)CC1	inactive: 20.5%	
Cc1ccc(NC(=O)c2ccc(NC(=O)N3CCSc4ncccc43)cc2)c(Cl)c1	inactive: 12.2%	
COc1cccc(C(=O)N(Cc2cccc(F)c2)C2CCS(=O)(=O)C2)c1 (stereo unspecified)	inactive: 4.27%	
Cc1ccc2c(c1)N(CC(=O)Nc1ccccc1C(F)(F)F)C(=O)c1cccnc1O2	inactive: -3.12%	
COc1ccc(Cn2ccnc2SCC(=O)Nc2ccc3c(c2)OCCO3)cc1	inactive: 3.96%	
CCOC(=O)c1c(NC(C)=O)c2c3c(sc2n1Cc1c(C)cc(C)cc1C)CCCC3	inactive: -23.8%	
CCOc1ccc(N(CC(=O)NCc2ccc(OC)cc2)S(=O)(=O)c2c(C)[nH]c(=O)[nH]c2=O)cc1	inactive: 12.5%	
CCOC(=O)c1cc2c(=O)n3ccccc3nc2n(Cc2ccco2)c1=NC(=O)c1ccc(C(C)(C)C)cc1	inactive: -17.6%	
COc1cccc(OC)c1C(=O)Nc1ccc(-c2nc3ncccc3o2)cc1	inactive: -2.33%	
Cc1c(Cl)cccc1NC(=O)c1oc2ccc(S(=O)(=O)N3CCCCCC3)cc2c1C	inactive: 4.18%	
COc1ccc(CCNC(=O)c2cc3c(=O)n4cccc(C)c4nc3n2C)cc1	inactive: 4.59%	
Cc1cc(C)cc(-n2ccn(CC(=O)NCCc3ccccc3)c(=O)c2=O)c1	inactive: -2.1%	
COc1cc2c(cc1OC)C(COc1ccc3c(C)cc(=O)oc3c1)N(C(=O)Cc1ccc(F)cc1)CC2 (stereo unspecified)	inactive: -0.0572%	
CCn1c(=O)c2cc(C(=O)Nc3cccc(C(F)(F)F)c3)sc2c2ccccc21	inactive: -3.73%	

Structure (SMILES)	activity change, negative = cytotoxicity	Potency
COc1ccc(C(=O)Nc2ccc(-c3nc4ncccc4o3)cc2C)cc1Br	inactive: 12.9%	
CCNC(=O)CCCN1C(=O)CCn2nc(-c3cccn3C)cc21	inactive: 5.24%	
Cc1ccc(CNC(=O)CSCc2ccccc2C)cc1	inactive: 1.54%	
Cc1ccc2nc(NCc3ccccc3)c3nncn3c2c1	inactive: 4.19%	
CCn1cc(C(=O)NCCc2ccc(Cl)cc2)c(=O)c2cc(S(=O)(=O)N(C)C3CCCCC3)ccc21	inactive: 2.16%	
O=S(=O)(c1ccc(C2CCCCC2)cc1)N1CCN(c2cc(Cl)ccc2Cl)CC1	inactive: 10.1%	
CCC(Sc1nc2nccnc2c(=O)n1Cc1ccccc1Cl)C(=O)NC1CCCCC1 (stereo unspecified)	inactive: -5.05%	
Fc1ccc(CNCCCSc2nnnn2-c2ccccc2)cc1	inactive: 1.48%	
COc1ccc(NC(=O)CSCc2cc(=O)c3cc(C)ccc3[nH]2)cc1	inactive: 1.86%	
COc1ccc(CCCc2nnc(SCC(=O)Nc3cc(F)ccc3C)o2)cc1	inactive: 8%	
COc1cc(Cl)c(C)cc1NC(=O)CC1Oc2ccccc2NC1=O (stereo unspecified)	inactive: 11.4%	
CCOc1ccc(CNC(=O)c2ccc3c(Cl)c4c(nc3c2)CCCC4)cc1	inactive: 16.6%	
COc1ccc(Cl)cc1NC(=O)CSc1nc(=O)n(Cc2ccco2)c2c1CCC2	inactive: -3.55%	
Cc1ccc(-n2ncc3c(Nc4ccc(Oc5ccccc5)cc4)ncnc32)c(C)c1	inactive: 0.167%	
COc1ccc(OC)c(-c2noc(CSc3nnc(-c4ccccc4)n3-c3ccccc3)n2)c1	inactive: -14.7%	
Cc1ccc(OCC(=O)Nc2nnc(S(=O)(=O)N3CCc4ccccc43)s2)cc1	inactive: 4.1%	
COc1ccc(N2CCN(S(=O)(=O)c3ccc(C4CCCCC4)cc3)CC2)cc1	inactive: -9.42%	
CCOC(=O)c1ccccc1NC(=O)c1cn(CC(C)C)c(=O)c2cc(OC)c(OC)cc12	inactive: 12.1%	
Cc1nc2ncnn2c(C)c1CCC(=O)N1CCN(c2ccc(F)cc2)CC1	inactive: 12%	
Cc1cccc(C(=O)NCCc2nc3ccccc3n2Cc2ccccc2Cl)c1	inactive: -3.41%	
Cc1ccc(NC(=O)Nc2nnc(SCC(=O)N3CCCCC3)s2)cc1	inactive: -18.1%	
COc1cccc(N2CC(NC(=O)c3cc4ccccc4o3)CC2=O)c1 (stereo unspecified)	inactive: 3.43%	
Fc1ccc(-c2noc3ncnc(NCCc4ccc(Cl)cc4)c23)cc1	inactive: -10.7%	
CC(C)c1ccc2c(c1)NC(c1ccc(F)cc1)=NC(c1cccs1)=N2	inactive: -0.964%	

Structure (SMILES)	activity change, negative = cytotoxicity	Potency
CC(C)c1noc(-c2ccccc2OCC(=O)Nc2ccc([N+](=O)[O-])cc2)n1	inactive: 7.45%	
COc1ccc(OC)c(C2C(C(=O)Nc3ccc(C)cc3C)=C(C)Nc3c(C(=O)Nc4ccc(F)cc4)cnn32)c1 (stereo unspecified)	inactive: -21.1%	
CCn1c2c(c(=O)n3ncc(C(=O)N4CCN(c5ccccc5)CC4)c13)CN(Cc1ccc(OC)cc1)CC2	inactive: -11.5%	
Cc1cc(=O)n(Cc2cccc(Cl)c2)c2c1c(C)nn2C	inactive: -13.4%	
CCOC(=O)CCc1c(C)nc2c(-c3ccccc3)c(C)[nH]n2c1=O	inactive: 2.76%	
O=C(CSc1nnc(-c2ccncc2)n1-c1ccccc1)Nc1ccc(F)cc1	inactive: 8.63%	
CCOc1ccccc1CNC(=O)CSc1n[nH]c(-c2ccccc2)n1	inactive: 1.35%	
COc1cccc(NC(=O)CSc2nc(=O)n(Cc3cccnc3)c3c2CCC3)c1	inactive: -16%	
Cc1cccc2c(=O)cc(CSc3ccccc3NC(=O)C(C)C)[nH]c12	inactive: -12.4%	
CCCCOc1cccc(C(=O)Nc2sc3c(c2C(=O)OCC)CCCC3)c1	inactive: 1.62%	
CCOc1ccc(-n2c(SCc3ccccc3)nc3c([nH]c4ccccc43)c2=O)cc1	inactive: 2.43%	
COc1ccc(OCC(=O)Nc2ccc(-c3nc4cc(Cl)ccc4o3)cc2)cc1	inactive: 6.03%	
CCOc1ccc(CNC(=O)c2ccc3c(c2)c(C)c(C)n3C)cc1	inactive: -6.38%	
CCCN(CCC)C(=O)Cn1c(=O)n(-c2ccc(OC)cc2OC)c(=O)c2c3c(sc21)CCC3	inactive: 12.7%	
COc1ccc(CCNC(=O)CCCCn2c(=O)c3ccccc3n(Cc3cc(C)ccc3C)c2=O)cc1OC	inactive: -0.487%	
CCOC(=O)c1cccnc1SCC(=O)N(CC)c1cccc(C)c1	inactive: -1.16%	
NC(=O)c1nc(Nc2ccccc2)sc1NC(=O)c1c(F)cccc1F	inactive: -12.2%	
CCOC(=O)c1ccc(NC(=O)c2c(NCc3sccc3C)sc3c2CCC(C)C3)cc1 (stereo unspecified)	inactive: -6.96%	
Cc1ccc(C)c(N2CCN(C(=O)CCc3nnc4n(C)c(=O)c5ccccc5n34)CC2)c1	inactive: 18%	
CN1CCN(C(CNC(=O)C(=O)Nc2ccc(Cl)cc2)c2cccnc2)CC1 (stereo unspecified)	inactive: -4.83%	
CCOCCCNC(=O)c1c[nH]c2ccc(S(=O)(=O)N(C)c3ccc(Cl)cc3F)cc2c1=O	inactive: 2.34%	
CCc1ccccc1NC(=O)c1oc(=O)c2ccccc2c1-c1ccccc1	inactive: 7.44%	
CC(C)(C)c1ccc(OCC(=O)Nc2ccc(C(=O)OC3CCCCC3)cc2)cc1	inactive: -4.3%	
COc1ccc(F)cc1S(=O)(=O)NCC(c1ccco1)S(=O)(=O)c1cccs1 (stereo unspecified)		active: 12.6 µM
